No constants are given. Whether binding was seen depends on the method and setting. In cells and extracts the contact can be indirect. Some binding calls cover weakened binding; strength is not graded here.
T1: HERC6 (HECT domain- and RCC1-like domain-containing protein 6), endogenous, mouse peritoneal macrophages (mouse (endogenous in peritoneal macrophages)) (UniProt F2Z461)
T1 sequence: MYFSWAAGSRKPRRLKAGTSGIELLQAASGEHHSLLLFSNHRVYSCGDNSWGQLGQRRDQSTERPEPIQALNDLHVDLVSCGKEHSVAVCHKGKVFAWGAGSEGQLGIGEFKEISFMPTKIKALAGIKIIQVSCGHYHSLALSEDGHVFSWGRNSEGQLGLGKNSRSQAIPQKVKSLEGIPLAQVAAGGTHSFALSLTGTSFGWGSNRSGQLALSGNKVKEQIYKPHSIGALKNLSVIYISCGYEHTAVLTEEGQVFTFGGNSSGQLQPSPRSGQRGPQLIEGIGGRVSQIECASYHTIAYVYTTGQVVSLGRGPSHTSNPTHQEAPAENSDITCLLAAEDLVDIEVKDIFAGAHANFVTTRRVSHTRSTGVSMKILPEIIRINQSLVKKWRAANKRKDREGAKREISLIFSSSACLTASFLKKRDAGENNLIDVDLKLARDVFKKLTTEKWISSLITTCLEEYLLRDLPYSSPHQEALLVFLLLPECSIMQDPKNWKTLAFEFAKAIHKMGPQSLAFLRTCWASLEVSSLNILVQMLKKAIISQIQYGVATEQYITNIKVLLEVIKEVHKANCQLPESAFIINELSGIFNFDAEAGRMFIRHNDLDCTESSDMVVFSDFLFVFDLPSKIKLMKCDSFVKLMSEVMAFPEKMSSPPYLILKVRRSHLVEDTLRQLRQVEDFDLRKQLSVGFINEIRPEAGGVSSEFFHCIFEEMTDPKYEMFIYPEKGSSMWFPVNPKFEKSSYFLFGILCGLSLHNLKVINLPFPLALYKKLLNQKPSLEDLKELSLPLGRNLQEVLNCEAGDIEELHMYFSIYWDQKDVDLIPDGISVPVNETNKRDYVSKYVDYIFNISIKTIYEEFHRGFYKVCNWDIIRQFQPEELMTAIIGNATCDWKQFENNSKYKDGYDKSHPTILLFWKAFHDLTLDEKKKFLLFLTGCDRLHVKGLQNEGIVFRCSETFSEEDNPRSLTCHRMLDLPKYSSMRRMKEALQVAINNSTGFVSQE

Sequences of proteins named here, by UniProt entry; tags and fusion partners are left off.
UniProt Q96P20: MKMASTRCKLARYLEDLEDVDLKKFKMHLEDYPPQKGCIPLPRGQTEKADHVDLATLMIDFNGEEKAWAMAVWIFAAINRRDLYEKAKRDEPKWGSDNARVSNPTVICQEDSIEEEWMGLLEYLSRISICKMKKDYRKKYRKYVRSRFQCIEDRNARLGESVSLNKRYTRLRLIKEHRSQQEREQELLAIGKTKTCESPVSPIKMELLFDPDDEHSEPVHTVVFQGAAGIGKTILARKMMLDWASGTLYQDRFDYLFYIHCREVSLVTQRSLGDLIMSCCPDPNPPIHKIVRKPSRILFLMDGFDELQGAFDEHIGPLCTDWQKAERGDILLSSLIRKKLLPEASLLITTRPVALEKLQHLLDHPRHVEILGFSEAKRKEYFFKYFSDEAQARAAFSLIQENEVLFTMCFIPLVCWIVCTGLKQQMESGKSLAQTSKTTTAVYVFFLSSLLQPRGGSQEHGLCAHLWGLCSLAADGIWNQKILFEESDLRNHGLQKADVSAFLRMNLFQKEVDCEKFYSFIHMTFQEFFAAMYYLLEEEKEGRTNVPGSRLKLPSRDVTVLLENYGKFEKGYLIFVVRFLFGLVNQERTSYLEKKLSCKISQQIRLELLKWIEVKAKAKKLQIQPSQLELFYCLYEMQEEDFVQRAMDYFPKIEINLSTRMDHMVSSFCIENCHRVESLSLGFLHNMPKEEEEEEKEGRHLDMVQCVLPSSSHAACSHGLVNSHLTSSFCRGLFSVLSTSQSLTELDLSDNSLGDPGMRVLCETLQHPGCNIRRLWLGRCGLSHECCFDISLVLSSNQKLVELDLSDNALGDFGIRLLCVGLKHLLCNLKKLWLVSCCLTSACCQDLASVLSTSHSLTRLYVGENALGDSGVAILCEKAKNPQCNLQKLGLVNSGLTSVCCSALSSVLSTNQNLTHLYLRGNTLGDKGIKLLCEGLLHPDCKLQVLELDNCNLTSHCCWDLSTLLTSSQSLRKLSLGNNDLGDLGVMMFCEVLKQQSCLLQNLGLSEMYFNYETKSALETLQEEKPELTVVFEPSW

B1: HERC5, endogenous, THP-1 cells (enzyme, UniProt Q9UII4 1-1024)
chain: MERRSRRKSRRNGRSTAGKAAATQPAKSPGAQLWLFPSAAGLHRALLRRVEVTRQLCCSPGRLAVLERGGAGVQVHQLLAGSGGARTPKCIKLGKNMKIHSVDQGAEHMLILSSDGKPFEYDNYSMKHLRFESILQEKKIIQITCGDYHSLALSKGGELFAWGQNLHGQLGVGRKFPSTTTPQIVEHLAGVPLAQISAGEAHSMALSMSGNIYSWGKNECGQLGLGHTESKDDPSLIEGLDNQKVEFVACGGSHSALLTQDGLLFTFGAGKHGQLGHNSTQNELRPCLVAELVGYRVTQIACGRWHTLAYVSDLGKVFSFGSGKDGQLGNGGTRDQLMPLPVKVSSSEELKLESHTSEKELIMIAGGNQSILLWIKKENSYVNLKRTIPTLNEGTVKRWIADVETKRWQSTKREIQEIFSSPACLTGSFLRKRRTTEMMPVYLDLNKARNIFKELTQKDWITNMITTCLKDNLLKRLPFHSPPQEALEIFFLLPECPMMHISNNWESLVVPFAKVVCKMSDQSSLVLEEYWATLQESTFSKLVQMFKTAVICQLDYWDESAEENGNVQALLEMLKKLHRVNQVKCQLPESIFQVDELLHRLNFFVEVCRRYLWKMTVDASENVQCCVIFSHFPFIFNNLSKIKLLHTDTLLKIESKKHKAYLRSAAIEEERESEFALRPTFDLTVRRNHLIEDVLNQLSQFENEDLRKELWVSFSGEIGYDLGGVKKEFFYCLFAEMIQPEYGMFMYPEGASCMWFPVKPKFEKKRYFFFGVLCGLSLFNCNVANLPFPLALFKKLLDQMPSLEDLKELSPDLGKNLQTLLDDEGDNFEEVFYIHFNVHWDRNDTNLIPNGSSITVNQTNKRDYVSKYINYIFNDSVKAVYEEFRRGFYKMCDEDIIKLFHPEELKDVIVGNTDYDWKTFEKNARYEPGYNSSHPTIVMFWKAFHKLTLEEKKKFLVFLTGTDRLQMKDLNNMKITFCCPESWNERDPIRALTCFSVLFLPKYSTMETVEEALQEAINNNRGFG
B2: CASP1, endogenous, mouse peritoneal macrophages (enzyme, UniProt P29452 1-402)
chain: MADKILRAKRKQFINSVSIGTINGLLDELLEKRVLNQEEMDKIKLANITAMDKARDLCDHVSKKGPQASQIFITYICNEDCYLAGILELQSAPSAETFVATEDSKGGHPSSSETKEEQNKEDGTFPGLTGTLKFCPLEKAQKLWKENPSEIYPIMNTTTRTRLALIICNTEFQHLSPRVGAQVDLREMKLLLEDLGYTVKVKENLTALEMVKEVKEFAACPEHKTSDSTFLVFMSHGIQEGICGTTYSNEVSDILKVDTIFQMMNTLKCPSLKDKPKVIIIQACRGEKQGVVLLKDSVRDSEEDFLTDAIFEDDGIKKAHIEKDFIAFCSSTPDNVSWRHPVRGSLFIESLIKHMKEYAWSCDLEDIFRKVRFSFEQPEFRLQMPTADRVTLTKRFYLFPGH

Experiments:
[1] = biological target: NLRP3, endogenous, THP-1 cells (human (endogenous in THP-1)) (UniProt Q96P20); experiment: co-IP; endogenous proteins in THP-1 cells, LPS-stimulated or LPS-primed and ATP-activated; IP buffer 1.0% NP-40, 50 mM Tris-HCl pH 7.4, 50 mM EDTA, 150 mM NaCl
[2] = biological target: T1, HERC6 (HECT domain- and RCC1-like domain-containing protein 6), endogenous, mouse peritoneal macrophages (mouse (endogenous in peritoneal macrophages)); experiment: co-IP; endogenous proteins in mouse peritoneal macrophages, LPS-stimulated or LPS-primed and ATP-activated; IP buffer 1.0% NP-40, 50 mM Tris-HCl pH 7.4, 50 mM EDTA, 150 mM NaCl

Binder | binding [1] | binding [2]
B1 | binds | 
B2 |  | no binding

— article PMC10575725
